# Source: the supplement of paper PMC8728848
# The other results are listed elsewhere or left out.
# B1: PX9961X-pdi-531-24-531 (Parabacteroides distasonis) (protein)
# chain: DLTEEIHSSVIAENYYNNAGEVMAAMMRPWGHFCGTMQVAQSPWSCNELSSDCAAWPQKGRHGYDNGDWIRLHRHQWIPTDGQVVDAWKKLFEGIGYANNFLTDTENIDFEALQVPMSKAQAQAEMRVYRAYCYWYVMDMFGTAPICEKIGEINPSSKSRAELFAWIEKELNESIPSLSESKTETYGRVSKWGAYALLARLYLNAEIYTGQARWDDCIAACDELAKGGFALDKKWNDTFRADNDKRSTEIIWSIVYDEVYAKGMGWYQRWLHYAHQTGWDLQSGPWNGLVTQPTFYDSFADNDLRKIEGFLIGKQYPRKVDENGNYYYDTTAEPLKGSEEYNGQDLVFVNYIKSMTEGEENSGARSIKYEIQPGTTGDMNNDWVMFRYSEVIYNKAEALMRKNGGKATQEVVDMINSVRQRSFKAEDWEKAKYTTATLTMDEFLAEKGREFAFEGIRRTDLVRFNKFVTTSWWDKTASNEPKRNIFPIPQRQLDANANLSPNEANSLF
# How the values were obtained:
# Test in all cases: glycan array binding signal (z-score within array); higher = stronger binding
# Conditions in all cases: glycan notation: IUPAC condensed, linker removed
# [1] = biological target: Neu5Ac(a2-3)Gal(b1-4)GlcNAc(b1-2)[Neu5Ac(a2-3)Gal(b1-4)GlcNAc(b1-4)]Man(a1-3)[GlcNAc(b1-4)][Neu5Ac(a2-3)Gal(b1-4)GlcNAc(b1-4)Man(a1-6)]Man(b1-4)GlcNAc(b1-4)GlcNAc
# Outline: (§1)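 Negative Z-scores can be read as non-binding. The Z-score is calculated within each array and then averaged across arrays of one protein sequence at different concentrations or buffers and across linkers. Arrays, 3228 in all, were curated from the Consortium for Functional Glycomics database and kept only where the protein sequence was available.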
# [2] = biological target: Neu5Ac(a2-3)Gal(b1-4)GlcNAc(b1-2)[Neu5Ac(a2-3)Gal(b1-4)GlcNAc(b1-6)]Man(a1-6)[Neu5Ac(a2-3)Gal(b1-4)GlcNAc(b1-2)Man(a1-3)]Man(b1-4)GlcNAc(b1-4)GlcNAc
# Outline: as §1
# [3] = biological target: Neu5Ac(a2-3)Gal(b1-4)GlcNAc(b1-2)[Neu5Ac(a2-3)Gal(b1-4)GlcNAc(b1-6)]Man(a1-6)[Neu5Ac(a2-3)Gal(b1-4)GlcNAc(b1-2)Man(a1-3)][GlcNAc(b1-4)]Man(b1-4)GlcNAc(b1-4)GlcNAc
# Outline: as §1
# [4] = biological target: Neu5Ac(a2-3)Gal(b1-4)GlcNAc(b1-3)Gal
# Outline: as §1
# [5] = biological target: Neu5Ac(a2-3)Gal(b1-4)GlcNAc(b1-3)Gal(b1-3)GlcNAc
# Outline: as §1
# [6] = biological target: Neu5Ac(a2-3)Gal(b1-4)GlcNAc(b1-3)Gal(b1-4)GlcNAc
# Outline: as §1
# [7] = biological target: Neu5Ac(a2-3)Gal(b1-4)GlcNAc(b1-3)Gal(b1-4)GlcNAc(b1-2)Man(a1-3)[Neu5Ac(a2-3)Gal(b1-4)GlcNAc(b1-3)Gal(b1-4)GlcNAc(b1-2)Man(a1-6)]Man(b1-4)GlcNAc(b1-4)GlcNAc
# Outline: as §1
# [8] = biological target: Neu5Ac(a2-3)Gal(b1-4)GlcNAc(b1-3)Gal(b1-4)GlcNAc(b1-3)Gal(b1-4)GlcNAc
# Outline: as §1
# [9] = biological target: Neu5Ac(a2-3)Gal(b1-4)GlcNAc(b1-3)Gal(b1-4)GlcNAc(b1-3)Gal(b1-4)GlcNAc(b1-2)Man(a1-3)[Neu5Ac(a2-3)Gal(b1-4)GlcNAc(b1-3)Gal(b1-4)GlcNAc(b1-3)Gal(b1-4)GlcNAc(b1-2)Man(a1-6)]GalNAc
# Outline: as §1
# [10] = biological target: Neu5Ac(a2-3)Gal(b1-4)GlcNAc(b1-3)Gal(b1-4)GlcNAc(b1-3)GalNAc
# Outline: as §1
# [11] = biological target: Neu5Ac(a2-3)Gal(b1-4)GlcNAc(b1-3)Gal(b1-4)GlcNAc(b1-3)[Neu5Ac(a2-3)Gal(b1-4)GlcNAc(b1-3)Gal(b1-4)GlcNAc(b1-6)]GalNAc
# Outline: as §1
# [12] = biological target: Neu5Ac(a2-3)Gal(b1-4)GlcNAc(b1-3)Gal(b1-4)GlcNAc(b1-6)[Gal(b1-3)]GalNAc
# Outline: as §1
# [13] = biological target: Neu5Ac(a2-3)Gal(b1-4)GlcNAc(b1-3)Gal(b1-4)[Fuc(a1-3)]GlcNAc
# Outline: as §1
# [14] = biological target: Neu5Ac(a2-3)Gal(b1-4)GlcNAc(b1-3)GalNAc
# Outline: as §1
# [15] = biological target: Neu5Ac(a2-3)Gal(b1-4)GlcNAc(b1-3)[Neu5Ac(a2-3)Gal(b1-4)GlcNAc(b1-6)]GalNAc
# Outline: as §1
# [16] = biological target: Neu5Ac(a2-3)Gal(b1-4)GlcNAc(b1-6)GalNAc
# Outline: as §1
# [17] = biological target: Neu5Ac(a2-3)Gal(b1-4)GlcNAc(b1-6)[Gal(b1-3)]GalNAc
# Outline: as §1
# [18] = biological target: Neu5Ac(a2-3)Gal(b1-4)GlcNAc(b1-6)[Neu5Ac(a2-3)Gal(b1-3)]GalNAc
# Outline: as §1
# [19] = biological target: Neu5Ac(a2-3)Gal(b1-4)GlcNAc6S
# Outline: as §1
# [20] = biological target: Neu5Ac(a2-3)Gal(b1-4)[Fuc(a1-3)]GlcNAc
# Outline: as §1
# [21] = biological target: Neu5Ac(a2-3)Gal(b1-4)[Fuc(a1-3)]GlcNAc(b1-2)Man
# Outline: as §1
# [22] = biological target: Neu5Ac(a2-3)Gal(b1-4)[Fuc(a1-3)]GlcNAc(b1-3)Gal
# Outline: as §1
# [23] = biological target: Neu5Ac(a2-3)Gal(b1-4)[Fuc(a1-3)]GlcNAc(b1-3)Gal(b1-4)GlcNAc
# Outline: as §1
# [24] = biological target: Neu5Ac(a2-3)Gal(b1-4)[Fuc(a1-3)]GlcNAc(b1-3)Gal(b1-4)[Fuc(a1-3)]GlcNAc(b1-3)Gal(b1-4)[Fuc(a1-3)]GlcNAc
# Outline: as §1
# [25] = biological target: Neu5Ac(a2-3)Gal(b1-4)[Fuc(a1-3)]GlcNAc(b1-3)GalNAc
# Outline: as §1
# [26] = biological target: Neu5Ac(a2-3)Gal(b1-4)[Fuc(a1-3)]GlcNAc(b1-6)[Gal(b1-3)]GalNAc
# Outline: as §1
# [27] = biological target: Neu5Ac(a2-3)Gal(b1-4)[Fuc(a1-3)]GlcNAc(b1-6)[Neu5Ac(a2-3)Gal(b1-3)]GalNAc
# Outline: as §1
# [28] = biological target: Neu5Ac(a2-3)Gal(b1-4)[Fuc(a1-3)]GlcNAc6S
# Outline: as §1
# [29] = biological target: Neu5Ac(a2-3)Gal6S(b1-4)GlcNAc
# Outline: as §1
# [30] = biological target: Neu5Ac(a2-3)Gal6S(b1-4)[Fuc(a1-3)]GlcNAc
# Outline: as §1
# [31] = biological target: Neu5Ac(a2-3)GalNAc
# Outline: as §1
# [32] = biological target: Neu5Ac(a2-3)GalNAc(b1-4)GlcNAc
# Outline: as §1
# [33] = biological target: Neu5Ac(a2-3)[GalNAc(b1-4)]Gal(b1-4)Glc
# Outline: as §1
# [34] = biological target: Neu5Ac(a2-3)[GalNAc(b1-4)]Gal(b1-4)GlcNAc
# Outline: as §1
# [35] = biological target: Neu5Ac(a2-3)[GalNAc(b1-4)]Gal(b1-4)GlcNAc(b1-3)GalNAc
# Outline: as §1
# [36] = biological target: Neu5Ac(a2-3)[Neu5Ac(a2-6)]GalNAc
# Outline: as §1
# [37] = biological target: Neu5Ac(a2-6)Gal
# Outline: as §1
binder,measurement,setting,value
B1,glycan array binding signal (z-score),[1],-0.254
same,glycan array binding signal (z-score),[2],0.2
same,glycan array binding signal (z-score),[3],-0.416
same,glycan array binding signal (z-score),[4],-0.183
same,glycan array binding signal (z-score),[5],0.115
same,glycan array binding signal (z-score),[6],-0.367
same,glycan array binding signal (z-score),[7],0.738
same,glycan array binding signal (z-score),[8],-0.134
same,glycan array binding signal (z-score),[9],1.07
same,glycan array binding signal (z-score),[10],-0.038
same,glycan array binding signal (z-score),[11],-0.773
same,glycan array binding signal (z-score),[12],-0.327
same,glycan array binding signal (z-score),[13],-0.564
same,glycan array binding signal (z-score),[14],0.228
same,glycan array binding signal (z-score),[15],-0.08
same,glycan array binding signal (z-score),[16],-0.431
same,glycan array binding signal (z-score),[17],0.534
same,glycan array binding signal (z-score),[18],-0.568
same,glycan array binding signal (z-score),[19],-0.58
same,glycan array binding signal (z-score),[20],-0.313
same,glycan array binding signal (z-score),[21],-0.632
same,glycan array binding signal (z-score),[22],-0.709
same,glycan array binding signal (z-score),[23],0.562
same,glycan array binding signal (z-score),[24],0.295
same,glycan array binding signal (z-score),[25],2.11
same,glycan array binding signal (z-score),[26],1.2
same,glycan array binding signal (z-score),[27],0.962
same,glycan array binding signal (z-score),[28],-0.754
same,glycan array binding signal (z-score),[29],-0.562
same,glycan array binding signal (z-score),[30],-0.385
same,glycan array binding signal (z-score),[31],-0.246
same,glycan array binding signal (z-score),[32],-0.07
same,glycan array binding signal (z-score),[33],-0.049
same,glycan array binding signal (z-score),[34],-0.247
same,glycan array binding signal (z-score),[35],-0.439
same,glycan array binding signal (z-score),[36],-0.986
same,glycan array binding signal (z-score),[37],-0.587
